Data on 57 molecules can be found in PubChem BioAssay AID588591 (National Center for Advancing Translational Sciences (NCATS), 2011).

The campaign covered roughly 390,000 compounds. About 4,700 (1.2%) were called active. Roughly 4% stayed inconclusive and do not appear here. Calls come from the whole dose curve; as a rule, active = well fitted inhibition curve with a large enough effect; inconclusive = small, poorly fitted or top-dose-only effect, or another doubt; inactive = no such curve, though single readings can be large or run the other way. Only a part is listed here, and it is no random draw.
% is set by controls: 0 for no effect and ±100 for the full control effect; potency is the fitted concentration of half-maximal effect.

UniProt Q9Y253, sequence (Q9Y253 whole entry, looked up): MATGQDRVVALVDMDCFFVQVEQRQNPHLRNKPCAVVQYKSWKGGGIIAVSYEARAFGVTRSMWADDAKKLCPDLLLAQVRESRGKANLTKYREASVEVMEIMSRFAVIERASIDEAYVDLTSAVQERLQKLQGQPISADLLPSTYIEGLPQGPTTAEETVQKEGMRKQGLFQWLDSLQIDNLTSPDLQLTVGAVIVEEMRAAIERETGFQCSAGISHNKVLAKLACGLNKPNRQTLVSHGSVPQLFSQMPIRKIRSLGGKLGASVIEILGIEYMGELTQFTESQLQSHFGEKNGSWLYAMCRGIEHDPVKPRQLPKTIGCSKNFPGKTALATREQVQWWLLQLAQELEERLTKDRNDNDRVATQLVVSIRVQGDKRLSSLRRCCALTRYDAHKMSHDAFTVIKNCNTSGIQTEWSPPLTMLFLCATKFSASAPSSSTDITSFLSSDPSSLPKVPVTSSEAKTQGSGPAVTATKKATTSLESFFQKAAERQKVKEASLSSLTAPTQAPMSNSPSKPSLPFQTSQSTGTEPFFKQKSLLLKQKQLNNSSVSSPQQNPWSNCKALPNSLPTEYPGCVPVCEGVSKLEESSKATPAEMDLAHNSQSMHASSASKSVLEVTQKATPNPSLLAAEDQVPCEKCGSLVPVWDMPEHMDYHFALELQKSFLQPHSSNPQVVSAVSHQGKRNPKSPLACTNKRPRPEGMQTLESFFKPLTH

The assay deals with DNA polymerase eta (Homo sapiens) (UniProt Q9Y253). In words: qHTS for Inhibitors of Polymerase Eta. Particulars: recombinant Pol eta, fluorescent DNA replication assay; series mostly up to 114 µM; activity change, negative = inhibition: at the top concentration. Put shortly:
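Fluorescent replication assay: 50 nM final substrate added after a 15 min room-temperature compound preincubation with 10 nM enzyme. Signal taken at 0 min and again at 10 min.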
As to `COc1ccc(C(C(=O)NC2CCCC2)N(C(=O)c2snc(C(N)=O)c2N)c2cccc(O)c2)cc1` (configuration not stated), the Potency is active: 22.4 µM. `C[C@H](CO)N1C[C@H](C)[C@@H](CN(C)C(=O)Nc2cccc(Oc3ccccn3)c2)OCc2cnnn2CCCC1=O`: the “activity change, negative = inhibition” value was inactive: -9.97%. Regarding `CCCCn1c(N)c(N(CCOC)C(=O)c2cc(-c3ccco3)nc3ccccc23)c(=O)[nH]c1=O`, the Potency was active: 11.2 µM. On the same count and under the same terms, the same measure for `O=C(O)c1ccc(NN=CC2=C(N3CCOCC3)/C(=C/c3ccccc3)CC2)cc1`: active: 39.8 µM. As for `Cc1cc(Br)ccc1NC(=O)CSc1c2c(nc3ccccc13)CCC2`, the “activity change, negative = inhibition” value was inactive: 19.7%.

`CC1(c2ccc(OC(F)F)cc2)NC(=O)N(CC(=O)Nc2cccc(S(N)(=O)=O)c2)C1=O` (configuration not stated): the “activity change, negative = inhibition” value was inactive: 37.8%.

On to `Cc1nn(CCC(=O)Nc2cccc(C#N)c2)c(C)c1S(=O)(=O)N1CCCCC1`, for which the “activity change, negative = inhibition” value was inactive: -12.8%. Turning to `CN1CCOC1c1ccc(C2OCCN2C)cc1` (configuration not stated), the Potency is active: 20 µM. In the case of `COCCn1cnc2c(c1=O)c1nc3ccccc3nc1n2/N=C/c1ccco1`, the “activity change, negative = inhibition” value is inactive: 34.4%. As to `COc1ccc(/C=C2\SC(=O)N(CCC(=O)Nc3ccc(S(=O)(=O)Nc4nccs4)cc3)C2=O)cc1`, the “activity change, negative = inhibition” value is inactive: -15.1%. As to `COc1ccccc1NC(=O)c1ccc([N+](=O)[O-])o1`, the “activity change, negative = inhibition” value is inactive: 14.2%. `Cc1ccc(-n2c(CCC(=O)O)ccc2-c2cccs2)cc1C`: the “activity change, negative = inhibition” value is inactive: 2.45%.

As to `COc1ccc(OCC(=O)Nc2nnc(S(=O)(=O)N3CCCCCC3)s2)cc1`, the “activity change, negative = inhibition” value is inactive: 0.101%. For `COc1ccc(-c2csc(NC(=S)NC(=O)c3cccs3)n2)cc1OC`, the Potency is active: 20 µM. Regarding `CCS(=O)(=O)C1=NSC2=NC(=O)/C(=C\c3ccc(OS(=O)(=O)c4ccccc4)c(OC)c3)C(=N)N21`, the Potency was active: 39.8 µM. `CCc1cccc2c(-c3ccccc3)nc(SCC(=O)Nc3ccccc3)nc12`: the “activity change, negative = inhibition” value was inactive: 14.9%. With `O=C(CN1C(=O)C(=O)N(Cc2ccco2)C1=O)Nc1ccccc1`, the Potency was active: 20 µM.

As to `C=CC[C@@H](CC(=O)N(CCO)Cc1ccccc1)C(=O)N[C@@H](COC(=O)[C@@H](CC=C)Cc1ccc(F)cc1)Cc1ccccc1`, the “activity change, negative = inhibition” value was inactive: -16.9%. `CN(C[C@H](Cc1ccccc1)N(C[C@@H](Cc1cccc2ccccc12)N(CCc1ccccc1)N=O)N=O)N=O`: the “activity change, negative = inhibition” value was inactive: -2.91%. Turning to `C=CCC[C@@H](Cc1ccc(F)cc1)C(=O)OC[C@@H](Cc1c[nH]c2ccccc12)NC(=O)[C@H](CC=C)CC(=O)N(CCO)Cc1ccccc1`, the “activity change, negative = inhibition” value was inactive: -36%. Same read-out and setting: in the case of `Cc1ccc(C)c(NC(=O)Cn2cnc3c(oc4ccccc43)c2=O)c1` it was inactive: -24.2%; in that of `CCCCCC(=O)N1C[C@@H](O)[C@H](n2cc(COC(=O)c3ccccc3)nn2)C[C@@H]1c1ccc(C)cc1`, inactive: -3.23%; in that of `Cc1ccccc1-n1c(-c2ccc(Br)o2)n[nH]c1=S`, inactive: 29.6%. For the molecule `C=C(C)C(=O)Nc1cccc(C2=NOC3(C2)C[C@@H](C(N)=O)N(C(=O)c2cc([N+](=O)[O-])cc([N+](=O)[O-])c2)C3)c1` (some centres not stated), the Potency is active: 20 µM.

Turning to `O=c1c(Cl)c(Cl)cnn1Cc1nnc(-c2ccccc2Br)o1`, the Potency is active: 79.4 µM. In the case of `CCCCn1c(SCC(=O)c2ccc(OC)cc2OC)nc2cc(S(N)(=O)=O)ccc21`, the Potency was active: 25.1 µM. With `O=C1ON=C(c2ccccc2)/C1=C\c1ccco1`, the “activity change, negative = inhibition” value was inactive: -4.01%. Turning to `O=C(N/N=C/c1ccc(-c2ccc(Cl)c(C(=O)O)c2)o1)c1cc2c(ccc3ccccc32)o1`, the Potency was active: 11.2 µM. With `CCOc1ccc(NC(=O)C2CCN(S(=O)(=O)c3c(C)noc3/C=C/c3ccco3)CC2)cc1`, the “activity change, negative = inhibition” value was inactive: 19.7%. For the molecule `CCOc1ncccc1C(=O)OCC(=O)Nc1ccc(C(N)=O)cc1`, the “activity change, negative = inhibition” value was inactive: 38.1%.

For the molecule `Nc1nc(=S)c2ncn([C@@H]3O[C@H](CO)[C@@H](O)[C@H]3O)c2[nH]1`, the “activity change, negative = inhibition” value was inactive: -3.02%. On to `Cc1cc(C)c(NC(=O)Cn2c(=O)c3cccn3c3ccccc32)c(C)c1`, for which the “activity change, negative = inhibition” value was inactive: -20.2%. Regarding `O=c1cc(-c2ccc(O)cc2)oc2cc(O)cc(O)c12`, the “activity change, negative = inhibition” value is inactive: -21%.

Consider `CC(CCc1ccccc1)NCC#N` (configuration not stated), for which the “activity change, negative = inhibition” value was inactive: 34.8%. In the case of `C=CC[C@@H](CC(=O)N(CCO)Cc1ccccc1)C(=O)N[C@@H](COC(=O)[C@@H](CC=C)CC(=O)OC(C)(C)C)Cc1c[nH]c2ccccc12`, the “activity change, negative = inhibition” value was inactive: -21.2%. Take `COc1ccccc1NC(=O)Cn1c(O)c(N=NC(=O)c2ccccc2O)c2ccccc21`: the Potency was active: 50.1 µM. In the case of `CCOC(=O)[C@@H]1[C@H]2COc3ccccc3[C@H]2N2C(=O)N(c3ccc(C(F)(F)F)cc3)C(=O)[C@]12C`, the “activity change, negative = inhibition” value is inactive: -24.2%. Turning to `C=CCC[C@@H](Cc1ccc(F)cc1)C(=O)OC[C@@H](C)NC(=O)[C@H](CC=C)CC(=O)N(CCO)Cc1ccccc1`, the “activity change, negative = inhibition” value is inactive: -23.1%.

Regarding `O=C(COC(=O)Cc1cccc(C(F)(F)F)c1)NCc1ccco1`, the Potency was active: 5.01 µM. Regarding `Oc1ccc(/C=N/NC2=NCCCCC2)cc1`, the “activity change, negative = inhibition” value is inactive: 15.4%. With `COc1cc2nc(Nc3cccc(F)c3)nc(N)c2cc1OC`, the “activity change, negative = inhibition” value is inactive: -15%.

As for `COc1ccc(OC)c(N2C(=O)[C@@H]3C(c4ccccc4Cl)=NO[C@@H]3C2=O)c1`, the Potency was active: 1.26 µM. The same measure, in the same setting: in the case of `CCOc1ccccc1/C=c1\sc2nc(-c3ccco3)nn2c1=O` it was active: 7.94 µM; in that of `O=C(NCCc1ccc(F)cc1)c1ccc(Cl)c(S(=O)(=O)N2CCOCC2)c1`, active: 44.7 µM. The same measure, in the same setting: the same measure for `COc1cc(/C=C2\SC(=O)NC2=O)ccc1Oc1ccc([N+](=O)[O-])cc1[N+](=O)[O-]`: active: 50.1 µM. As to `COc1ccc(/C=C/C(=O)NC(=S)Nc2ccc(Br)cn2)cc1`, the “activity change, negative = inhibition” value was inactive: 16.7%.

Turning to `Cc1ccc(C(=O)Nc2cccc(C(F)(F)F)c2)cc1NC(=O)c1nccnc1N`, the “activity change, negative = inhibition” value is inactive: -7.63%. As for `CCSc1nnc(NC(=O)C2CC=CCC2C(=O)O)s1` (configuration not stated), the Potency is active: 20 µM.

Take `Cc1cc(C(=O)NCc2cc(C(=O)O)co2)co1`: the Potency was active: 20 µM. Turning to `O=C1C=C(Nc2ccccc2O)c2ccccc2C1=O`, the Potency is active: 25.1 µM. Take `Nc1ccc2ccc(O)cc2c1`: the Potency was active: 50.1 µM. The same measure, in the same setting: the same measure for `O=C(NC(=S)Nc1ccc(Cl)c(C(=O)O)c1)c1cccc(COc2ccccc2)c1`: active: 79.4 µM. On to `Cc1[nH]c2ccccc2c1C(=O)/C=C\c1ccccc1Cl`, for which the “activity change, negative = inhibition” value was inactive: -9.78%. For `COc1ccc(CCN2CC(C(=O)NCCc3ccc(C)cc3)CC2=O)cc1OC` (configuration not stated), the “activity change, negative = inhibition” value was inactive: -0.952%. `CCc1cc(C(=O)Nc2nnc(C3CC3)s2)sc1C`: the Potency was active: 50.1 µM. As for `O=C1O/C(=C\c2ccccc2)c2ccccc21`, the “activity change, negative = inhibition” value was inactive: 2.41%. On the same count and under the same terms, in the case of `O=C(C1CCCN(S(=O)(=O)c2cccc3nsnc23)C1)N1CCN(c2ccccn2)CC1` (configuration not stated) it was inactive: -10.7%.
